Structures are written as SMILES. In all, about 310,000 compounds went through this assay and about 2,200 (0.71%) showed an effect of 50% or more. The effect is printed as a negative number. The list shows a part of the results.

The target of the assay is human ether-à-go-go-related gene (hERG) potassium channel (human, UniProt Q12809). Briefly: primary screen, population patch clamp on CHO cells stably expressing hERG.
Sequence of human ether-à-go-go-related gene (hERG) potassium channel (Q12809 whole entry, looked up): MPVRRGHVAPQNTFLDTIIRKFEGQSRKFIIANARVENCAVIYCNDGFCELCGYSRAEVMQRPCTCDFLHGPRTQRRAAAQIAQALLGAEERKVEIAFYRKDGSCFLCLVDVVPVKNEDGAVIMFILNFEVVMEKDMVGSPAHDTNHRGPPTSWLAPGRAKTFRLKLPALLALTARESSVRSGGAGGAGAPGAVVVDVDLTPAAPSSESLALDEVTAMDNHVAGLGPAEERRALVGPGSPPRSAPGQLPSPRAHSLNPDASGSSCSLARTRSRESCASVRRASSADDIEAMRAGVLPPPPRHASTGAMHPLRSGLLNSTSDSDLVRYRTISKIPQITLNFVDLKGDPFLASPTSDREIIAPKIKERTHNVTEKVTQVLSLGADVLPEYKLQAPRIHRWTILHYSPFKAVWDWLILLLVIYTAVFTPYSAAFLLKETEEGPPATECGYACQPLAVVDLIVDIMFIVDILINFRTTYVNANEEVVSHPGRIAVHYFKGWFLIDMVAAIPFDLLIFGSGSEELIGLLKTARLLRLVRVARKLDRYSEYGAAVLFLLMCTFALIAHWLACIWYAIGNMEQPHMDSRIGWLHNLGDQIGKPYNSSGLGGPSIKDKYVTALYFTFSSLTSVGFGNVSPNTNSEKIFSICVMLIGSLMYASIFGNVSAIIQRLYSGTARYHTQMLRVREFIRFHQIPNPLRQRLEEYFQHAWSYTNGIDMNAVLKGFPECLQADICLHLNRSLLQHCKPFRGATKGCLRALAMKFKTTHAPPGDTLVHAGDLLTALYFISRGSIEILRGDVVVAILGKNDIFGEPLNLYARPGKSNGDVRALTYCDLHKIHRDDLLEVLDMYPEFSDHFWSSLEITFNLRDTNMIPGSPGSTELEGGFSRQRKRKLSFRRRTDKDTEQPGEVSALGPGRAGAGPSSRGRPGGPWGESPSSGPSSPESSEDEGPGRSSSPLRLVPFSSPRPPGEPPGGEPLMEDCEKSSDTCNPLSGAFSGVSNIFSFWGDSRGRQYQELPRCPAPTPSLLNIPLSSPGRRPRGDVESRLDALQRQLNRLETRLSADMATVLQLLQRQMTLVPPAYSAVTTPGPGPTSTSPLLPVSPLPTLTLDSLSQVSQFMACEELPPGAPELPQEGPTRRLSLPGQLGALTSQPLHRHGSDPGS
Regarding `CC1CC(C)CN(c2cc3c(cc2[N+](=O)[O-])C(=O)N(c2ccccc2)C3=O)C1` (stereo not drawn), the “hERG current change (%, negative = inhibition) at 1uM” value stood at 6.1%. For `CCN(C(=O)COC(=O)c1ccccc1Nc1cccc(C)c1C)C1CCS(=O)(=O)C1` (stereo not drawn), the “hERG current change (%, negative = inhibition) at 1uM” value was 6.11%. Under `O=C(CCNS(=O)(=O)c1cccc2nsnc12)NC1CCCc2ccccc21` (stereo not drawn) stands 17.9%; under `Cc1noc(C)c1COc1ccc(C(=O)NCCOc2ccccc2)cc1`, -5.33%; under `COC(=O)C1=C(C)NC2=C(C(=O)CC(C)(C)C2)C1c1ccsc1` (stereo not drawn), 6.37%. The result for `Cn1nccc1C(=O)Nc1sc2c(c1C#N)CCCC2` reads 12.2%; that for `O=C(CN(Cc1ccc(F)cc1)C(=O)c1ccco1)NCc1ccc(F)cc1`, -13.6%; that for `Cn1c(=O)c2c(ncn2CC(=O)Nc2nc(-c3ccccc3Cl)cs2)n(C)c1=O`, 4.56%. Under `Cc1ccccc1NC(=O)c1cnn(-c2ccccc2)c1NC(=O)c1ccco1` stands 4.25%; under `CCOc1ccccc1NC(=O)c1ccccc1-c1nc(-c2ccccc2)no1`, 12.4%. As for `COc1ccccc1-n1nnnc1SCC(=O)NCC1(N2CCOCC2)CCCCC1`, the “hERG current change (%, negative = inhibition) at 1uM” value was -4.87%. Under `Cc1cc(C)c(C)c(OCCCOc2cccc3cccnc23)c1` stands 7.64%; under `Cc1nc(SCC(=O)c2ccc(Cl)s2)c2oc3ccccc3c2n1`, 4.35%; under `c1ccc(N2CCN(c3ccc4nncn4n3)CC2)nc1`, -15.7%. The result for `Cc1c(NC(=S)NC(=O)C(c2ccccc2)c2ccccc2)cccc1C(=O)O` reads 3.49%; that for `CC1CCCCC12NC(=O)N(CC(=O)OCc1ccc(Br)cc1)C2=O` (stereo not drawn), 12.7%. Under `O=C(COC(=O)CN1C(=O)C2CCCCC2C1=O)Nc1cc(S(=O)(=O)N2CCOCC2)ccc1Cl` (stereo not drawn) stands 14.7%.

On to `COc1ccc(S(=O)(=O)N(CC(=O)N/N=C/c2ccccc2C(=O)O)c2ccccc2OC)cc1`, for which the “hERG current change (%, negative = inhibition) at 1uM” value was determined as 15%. Turning to `CCN=C1S/C(=C\c2ccc(OCC)c(OC)c2)C(=O)N1CC`, the “hERG current change (%, negative = inhibition) at 1uM” value came to 13.1%. `COc1cc(NC(=O)c2ccccc2Cl)ccc1NC(=O)c1cccs1`: the “hERG current change (%, negative = inhibition) at 1uM” value is 6.22%. Under `CCOc1ccc(/C=N/NC(=O)c2cccc3ccccc23)c(OCC)c1` stands 13.6%; under `COC(=O)c1ccsc1NS(=O)(=O)c1ccccc1`, 13.9%; under `COCc1cccc(NC(=O)Cc2cccc3ccccc23)c1`, 13.6%. The result for `CC(C)OCCCNC(=O)C1CCN(S(=O)(=O)N2CCCC2)CC1` reads 8.54%.

The values are drawn from article PMC4336329 (PLoS ONE, 2015).
